Assay results published in PubChem BioAssay AID1159614 (National Center for Advancing Translational Sciences (NCATS), 2016).
Out of some 45,000 compounds screened, about 65 (0.1%) were called active. Calls follow the shape of the dose curve; as a rule, active = well fitted activation curve with a large enough effect; inconclusive = small, poorly fitted or top-dose-only effect; inactive = no such curve, though single readings can be large or run the other way. The list shows a part of the results.

molecular target: Galactocerebrosidase (Homo sapiens) (UniProt P54803); test: A Novel Cell-Based Assay to Identify Small Molecules for B -Galactocerebrosidase; settings: 145M-Twi-hGALC-G270D cells (Twitcher mouse brain line with human GALC G270D), HMU-beta-Gal fluorescence, 48 h; series mostly up to 57.5 µM; activation: at the top concentration; also: 0% is about no effect; nearly all actives have a fitted effect of over 65% in size
UniProt P54803, sequence (P54803 whole entry, looked up): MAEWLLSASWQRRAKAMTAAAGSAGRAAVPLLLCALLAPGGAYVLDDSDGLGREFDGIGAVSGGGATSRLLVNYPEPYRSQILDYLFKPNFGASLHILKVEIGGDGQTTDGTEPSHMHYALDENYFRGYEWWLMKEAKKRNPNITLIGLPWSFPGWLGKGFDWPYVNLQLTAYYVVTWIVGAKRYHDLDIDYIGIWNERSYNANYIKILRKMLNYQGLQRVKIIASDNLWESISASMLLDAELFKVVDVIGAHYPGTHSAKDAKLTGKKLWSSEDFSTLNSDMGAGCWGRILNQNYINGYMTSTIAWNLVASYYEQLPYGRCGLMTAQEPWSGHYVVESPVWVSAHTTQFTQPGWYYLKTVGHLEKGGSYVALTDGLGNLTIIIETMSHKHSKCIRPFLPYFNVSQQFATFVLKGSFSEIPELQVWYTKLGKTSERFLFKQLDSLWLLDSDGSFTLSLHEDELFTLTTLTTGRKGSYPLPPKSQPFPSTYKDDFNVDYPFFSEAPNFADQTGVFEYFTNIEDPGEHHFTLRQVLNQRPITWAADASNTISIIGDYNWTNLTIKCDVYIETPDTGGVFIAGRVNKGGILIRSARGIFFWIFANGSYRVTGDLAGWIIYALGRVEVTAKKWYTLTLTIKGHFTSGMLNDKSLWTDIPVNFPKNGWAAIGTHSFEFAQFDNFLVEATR
How it was run: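 Fluorogenic HMU-b-Gal hydrolysis (0.1 mM final, pH 5.2 citrate-phosphate with 1 mg/mL sodium taurocholate; carbonate stop buffer) measures mutant GALC activity after compound treatment of live 145M-Twi Twitcher brain cells stably carrying human GALC-G270D, with wild-type GALC line alongside; activation sought.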

activation, inactive:
CCCCOc1nnc(-c2ccc(OCC)cc2)c2ccccc12 -12.4%, O=C(CSc1nnc(-c2ccc(Cl)cc2)o1)N1CCc2ccccc21 -9.04%, Cc1ccc(Cn2cnc3c(oc4ccccc43)c2=O)cc1 -6.07%, Cc1cc(C)cc(NC(=O)C(NS(=O)(=O)c2cccc3nsnc23)c2ccccc2)c1 (stereo unspecified) -27.6%, O=C(Nc1onc2c1CCCC2)c1ccc(Cl)cc1 -3.83%, CCc1nc2nc(C)cc(Nc3ccc(Br)cc3F)n2n1 -8.85%, COc1cc2nc(N3CCN(C(=O)C4CCCO4)CC3)nc(N)c2cc1OC (stereo unspecified) -10.7%, Cc1ccccc1NC(=O)c1c2c(nc3ccccc13)C(=O)N(C1CCCCC1)C2 -6.16%, CCCCn1c2ccccc2c2nnc(SCC(=O)Nc3ccc(NC(C)=O)cc3)nc21 -27.8%, Cc1oc2ccc(O)c(CN(C)Cc3ccccc3)c2c1C(=O)Nc1cccc(Cl)c1C -9.35%, Cc1ccc2c(=O)c(C(=O)c3ccc(F)cc3)cn(CC(=O)NC3CCCCC3)c2n1 -11.7%, CC(=O)Nc1ccc(S(=O)(=O)Nc2ccc(-c3cn4c(C)csc4n3)cc2)cc1 -6%, COC(=O)c1cc(S(=O)(=O)N2CCN(c3cccc(C)c3)C(C)C2)c[nH]1 (stereo unspecified) -11.8%, COc1ccccc1-c1cc(C(F)(F)F)nc(S(=O)(=O)CCCC(=O)Nc2cc(C)ccc2O)n1 -11.3%, Cc1cccc(-c2nnc3n(CCc4ccccc4)c(=O)c4ccccc4n23)c1 -16.5%, CCOc1ccc(-n2c(SCC(=O)NCc3ccco3)nc3c([nH]c4ccccc43)c2=O)cc1 -1.67%, COc1ccc2c(Sc3ccccc3)c(C(=O)NCc3ccc(OC(C)C)cc3)[nH]c2c1 -7.35%, COc1ccc(-c2nc3ccc(NS(=O)(=O)c4ccccc4)cc3o2)cc1 1.74%, COc1cccc(CNC(=O)c2cc3n(n2)CCCN(Cc2ccc(C)cc2)C3=O)c1OC -10.3%, CCOc1ccc(NC(=O)c2c(NC(=O)Cc3ccccc3)sc3c2CCCC3)cc1 -0.451%, CCN(Cc1ccccc1)C(=O)Cn1c(=O)n(-c2ccc(OC)cc2OC)c(=O)c2c(C)c(C)sc21 -9.56%, CCOc1ccc(CNC(=O)c2ccc(-c3nc(CSc4ccc(C)cc4)c(C)o3)cc2)cc1 -7.16%, COc1ccc(Cl)cc1NC(=O)Cn1c(=O)n(Cc2ccco2)c(=O)c2ccc(C(=O)NC3CCCC3)cc21 -20.3%, Cc1ccc(NC(=O)c2sc(-n3nc(C)c(Cc4ccc(Cl)cc4)c3C)nc2C)cc1 -0.685%, Cc1ccc(-n2c3nc(=O)[nH]c(=O)c-3cc3c(Cl)cccc32)cc1 -13.3%, Cc1ccc(Cn2ccnc2SCC(=O)Nc2ccc3c(c2)OCO3)cc1 -5.66%, Cc1ccc(C)c(NC(=O)N2CCN(C)c3ncccc32)c1 -27.7%, CC(=O)N1CCOc2cc(S(=O)(=O)NCc3ccc(C)cc3)c(Cl)cc21 13.6%, O=C(/C=C\c1ccc2c(c1)OCO2)NC1CC(=O)N(c2ccc(Cl)cc2)C1 (stereo unspecified) -10.8%, COc1ccc(C2(Nc3cccc(C(=O)O)c3C)C(=O)c3ccccc3C2=O)cc1 -14.9%, Cc1ccc(NC(=O)C2CCN(S(=O)(=O)c3c(C)noc3C)CC2)c(C)c1 -15.5%, COc1ccc(-c2csc3nc(-c4ccccc4C)oc(=O)c23)cc1OC 3.78%, CCOC(=O)c1c(C)oc2ncnc(N3CCN(c4ccccc4F)CC3)c12 -13.2%, O=C(Cc1cccs1)NC1CC(=O)N(c2cccc(F)c2)C1 (stereo unspecified) -6.04%, COc1ccc(NC(=O)CSc2oc(-c3cccs3)nc2S(=O)(=O)c2ccc(C)cc2)c(OC)c1 -22.9%, CCOc1ccccc1NC(=O)c1cc(=O)c2ccc(C)cc2o1 -11.4%, CCSc1nc(-c2ccccc2OC)nc2c1Cc1c(CO)cnc(C)c1O2 -11.2%, Cc1ccc2c(CN3CCN(C(=O)c4ccc(F)cc4)CC3)cc(=O)oc2c1 -8.4%, Cc1ccc(OCC(=O)N(c2ccc(C)cc2)S(=O)(=O)c2ccc(Cl)cc2)cc1 -10.9%, Cn1c(=O)n(C)c2cc(NS(=O)(=O)c3ccc(F)cc3)ccc21 -9.05%, COc1cccc(C(=O)Nc2ccc3nc(SCC(=O)N4CCOCC4)sc3c2)c1 -15.9%, Cc1cc(C)n2c(Nc3ccc(Cl)cc3)c(-c3ccsc3)nc2n1 -7.64%, CCCCS(=O)(=O)c1oc(-c2cccs2)nc1S(=O)(=O)c1ccccc1 -13.3%, COc1cc2nc(NCCC(C)C)n3nc(-c4ccccc4)nc3c2cc1OC -7.34%, COc1ccccc1CNC(=O)CN1C(=O)COc2ccc(S(=O)(=O)Nc3ccccc3)cc21 -10.9%, COc1ccc(C2CC(=O)NC(NC(=O)c3ccc(Br)cc3)=N2)c(OC)c1OC (stereo unspecified) -6.97%, CSCCC(NS(=O)(=O)c1ccc2c(c1)oc(=O)n2C)C(=O)N1CCN(c2cc(C)ccc2C)CC1 (stereo unspecified) -33%, CC(C)(C)c1ccc(C(=O)NCCc2csc3nc(-c4ccccc4F)nn23)cc1 3.13%, CCc1c2c(nc3ccc(OC(=O)N4CCC(N5CCCCC5)CC4)cc13)-c1cc3c(c(=O)n1C2)COC(=O)[C@]3(O)CC -5.07%, CCOc1ccccc1NC(=O)CSc1nc(=O)[nH]c2c1CCCC2 -33.6%, O=C(CS(=O)(=O)c1cccc2nsnc12)Nc1ccccc1 -12.2%, O=S(=O)(Nc1ccccc1C(F)(F)F)c1ccc(N2CCCCS2(=O)=O)cc1 19.9%, CCCOc1cccc(NC(=O)c2c(-c3ccccc3Cl)noc2C)c1 -20.9%, COc1cc(/C=C/c2nc(C#N)c(N3CCCCCC3)o2)cc(OC)c1OC -29.6%, COc1ccc(OC)c(NC(=O)Cn2cnc3ccc(S(=O)(=O)N4CCC(C)CC4)cc3c2=O)c1 -18.1%, O=C(Nc1cc(-c2nc3ccccc3s2)ccc1Cl)c1cc2ccccc2o1 0.024%, CN(Cc1ccccc1)C(=O)c1ccc2c(c1)N(Cc1ccccc1F)C(=O)c1ccccc1S2(=O)=O 7.7%, Cc1ccc(-c2nc3sc(CCNS(=O)(=O)c4cc(F)ccc4F)c(C)n3n2)cc1 -4.37%, Cc1ccc(Cl)cc1-n1c(=O)cc(N2CCN(c3ccc(F)cc3)CC2)[nH]c1=O -15.9%, Cc1cc(C)c2oc(C(=O)Nc3ccc(S(=O)(=O)N4CCCCC4)cc3)cc(=O)c2c1 -0.335%, CC(=O)N(Cc1cccnc1)c1nc2c(F)cc(F)cc2s1 -11.7%, Cc1cccc(C)c1NC(=O)Cn1c(=O)n(Cc2ccccc2)c(=O)c2c(C)c(C(=O)N(C)C)sc21 -4.71%, COc1ccc(Cl)cc1NS(=O)(=O)c1ccc2[nH]c3c(c2c1)CCCC3 -4.78%, Cn1c(=O)c2c(-c3ccc(Cl)cc3)n(Cc3ccccc3)cc2n(C)c1=O -38.8%, O=C(O)Cn1nnc(-c2ccc(OCc3cccc(C(F)(F)F)c3)cc2)n1 -32.9%, COc1ccc(Cn2c(CCC(=O)NCc3cccc(Cl)c3)nc3cccnc32)cc1 -21.7%, CCOC(=O)c1[nH]c(C)c(CCC(=O)NCc2ccc(N(C)C)cc2)c1C 1.03%, COc1ccc(S(=O)(=O)NCCc2cc3ccc(C)c(C)c3[nH]c2=O)cc1 -36.2%, CCOC(=O)c1cc(S(=O)(=O)Nc2ccc(C)cc2Cl)[nH]n1 -13%, COc1cccc(NC(=O)C2CCC(CNS(=O)(=O)c3ccc4c(c3)CC(C)N4C(C)=O)CC2)c1 (stereo unspecified) -12.4%, COc1ccc(CNC(=O)CSc2nc3ccccc3nc2Cc2ccccc2)cc1 -1.23%, O=C(CSc1nccn1Cc1ccco1)Nc1ccc(F)cc1 -12.5%, CCOC(=O)CC(NC(=O)Cn1nnc(-c2ccc(C(F)(F)F)cc2)n1)c1ccc(OC)cc1 (stereo unspecified) -10.4%, CCCC1=Nc2cc(C(=O)NC3CCCC3)ccc2Sc2ccc(C)cc21 -28.7%, COc1cccc2c1cc1c(=O)n(CC(=O)N3CCN(c4cccc(C)c4)C(C)C3)nc(C)n12 (stereo unspecified) -8.82%, Cc1cc(C)cc(NC(=O)CSc2cc(C)[nH]c(=O)n2)c1 -1.73%, COc1ccc(C)cc1NC(=O)c1ccc2c(SCC(=O)O)c3c(nc2c1)CCCC3 -14.4%, CCOc1ccc(NC(=O)C2CC(=O)N(c3ccc(C(C)C)cc3)C2)cc1 (stereo unspecified) -14.6%, COc1ccc(NC(=O)c2sc3nc[nH]c(=O)c3c2C)cc1Cl -26.4%, Cn1c(=O)n(-c2ccc3c(c2)OCO3)c2nc(-c3ccccc3)nc(C(N)=O)c21 -18.9%, COc1ccc(C(=O)N2CCN(Cc3cc(=O)n4nc(-c5ccccc5C)sc4n3)CC2)cc1OC 18.7%, CC(=O)Nc1ccc(-c2cc(C(=O)O)c3c(-c4ccccc4)[nH]nc3n2)cc1 -4.46%, COc1cc(CN(C(=O)COc2ccc(C)cc2)c2ccccn2)cc(OC)c1OC -40.3%, Cc1cccc(NC(=O)C2CCN(S(=O)(=O)c3ccc(F)cc3)CC2)c1C -14.3%, CCCCNC(=O)c1nn(-c2ccc(CC)cc2)nc1CO -0.267%, COc1cccc(CN(C(=O)c2oc3cc(C)ccc3c2C)C2CCS(=O)(=O)C2)c1 (stereo unspecified) -21.4%, CCN(CC)CC(C)CNC(=O)c1cc(-c2ccc(Br)s2)nc2ccccc12 (stereo unspecified) -10.1%, CCOC(=O)c1ccc(NS(=O)(=O)c2ccc3c(c2)n(C)c(=O)n3C)cc1 -21.9%, CC1CCC(NC(=O)c2ccc3c(c2)N(Cc2cccc(Cl)c2)C(=O)c2ccccc2S3(=O)=O)CC1 (stereo unspecified) -13%, CCCn1c(=O)sc2cc(NC(=O)COc3ccc(Cl)cc3)ccc21 -8.31%, CCc1ccccc1NC(=O)Cn1nnc(C(=O)NCc2ccccc2Cl)c1N -19.6%, COc1ccc(CCNC(=O)c2ccc3c(c2)c(C)c(C)n3Cc2ccc(F)cc2)c(OC)c1OC 1.5%, COc1ccc(-c2nc(CSCC(=O)N3CCN(c4cccc(C)c4C)CC3)c(C)o2)cc1OC -9.85%, COc1cccc(-n2c(=O)c3c4c(sc3n(Cc3ccc(C)cc3)c2=O)CCCC4)c1 0.137%, Cc1ccc2nc(-c3ccccc3F)c(Nc3ccc(Cl)cc3)n2c1 -4.34%, COc1ccc(-c2nc3c4ccccc4n(CC(=O)N4CCN(c5ccccc5OC)CC4)c(=O)n3n2)cc1 -19%
